Results: paper PMC11167000
Residue numbers refer to the chain shown, from its start. Names may count otherwise. Results are given in words; binding and its absence hold for the method and conditions named. For part of these data: In cells and extracts the contact can be indirect. Some binding calls cover weakened binding; strength is not graded here. For part of these data: Tags and fused reporters may be left off the sequences shown.

T1: Decapentaplegic (Dpp)–Screw (Scw) heterodimer, Dpp:HA–Scw:Flag (Drosophila) (UniProt P07713+P54631)
T1 sequence 1: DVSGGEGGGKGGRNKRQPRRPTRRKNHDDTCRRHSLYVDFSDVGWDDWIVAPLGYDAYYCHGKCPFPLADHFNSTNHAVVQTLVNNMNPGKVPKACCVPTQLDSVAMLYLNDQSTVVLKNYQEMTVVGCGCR
T1 sequence 2: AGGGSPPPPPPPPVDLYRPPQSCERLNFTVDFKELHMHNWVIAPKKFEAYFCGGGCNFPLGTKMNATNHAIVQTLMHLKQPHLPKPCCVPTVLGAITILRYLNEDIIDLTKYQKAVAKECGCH

T2: Scw:Flag (Drosophila) (UniProt P54631)
T2 sequence: T1 sequence 2

T3: human CHRDL2 (A25–T429) (human) (UniProt Q6WN34)
T3 sequence (chain, Asn-linked glycan (predicted at Asn 114)): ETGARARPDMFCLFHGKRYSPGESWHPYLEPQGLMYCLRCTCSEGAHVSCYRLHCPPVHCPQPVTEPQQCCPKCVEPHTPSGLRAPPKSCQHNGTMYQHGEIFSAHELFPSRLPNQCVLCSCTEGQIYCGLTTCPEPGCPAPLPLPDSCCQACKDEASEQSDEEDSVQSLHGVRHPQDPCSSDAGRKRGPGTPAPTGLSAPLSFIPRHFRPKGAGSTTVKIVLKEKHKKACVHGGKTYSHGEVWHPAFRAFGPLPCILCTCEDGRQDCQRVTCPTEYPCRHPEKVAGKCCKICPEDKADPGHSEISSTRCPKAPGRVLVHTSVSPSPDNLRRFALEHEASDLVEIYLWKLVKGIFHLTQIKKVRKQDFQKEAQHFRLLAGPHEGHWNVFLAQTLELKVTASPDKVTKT

B1: Drosophila Twisted gastrulation, Tsg:His (protein, UniProt P54356 24-249)
chain: DGCNEVVCGSVVSKCLITQSCQCKLNDCHCCKDCLNCLGELYIECCGCLDMCPKHKDVLPSLTPRSEIGDIEGVPELFDTLTAEDDEGWSTIRFSMRAGFKQRVQGGASGDAGNGNGNGNAGSAGVTLCTVIYVNSCIRANKCRQQCESMGASSYRWFHDGCCECVGENCLNYGINESRCRGCPEDQDQLLTADTVPAEAEQDLERFFGNEEIEDEWGYGEEDEFS
B2: Dpp:HA (ligand, UniProt P07713 457-588)
chain: T1 sequence 1
B3: human TWSG1 N-terminal domain (TWSG1 NTD, C26–S83) (domain or fragment, UniProt Q9GZX9 26-83)
chain: ETGCNKALCASDVSKCLIQELCQCRPGEGNCSCCKECMLCLGALWDECCDCVGMCNPRNYS
B4: Drosophila Twisted gastrulation Ile40Glu, Tsg^I40E:His (protein, UniProt P54356 24-249)
chain: B1 chain with I17E

Experiments:
[1] = biological target: T1, Decapentaplegic (Dpp)–Screw (Scw) heterodimer, Dpp:HA–Scw:Flag (Drosophila); experiment: co-IP; as a8, but Dpp:HA–Scw:Flag medium mixed with both Sog medium and Tsg (wild-type or I40E) medium
[2] = biological target: T1, Decapentaplegic (Dpp)–Screw (Scw) heterodimer, Dpp:HA–Scw:Flag (Drosophila); experiment: co-IP; conditioned media of transfected S2R+ cells mixed (Dpp:HA–Scw:Flag medium with Sog or Tsg medium alone), 3 hours at room temperature, anti-Flag M2 matrix at 4 °C overnight, washed in 20 mM Tris pH 8, 150 mM NaCl, Western blot
Scw:Flag (Drosophila) = biological target: T2, Scw:Flag (Drosophila); experiment: as above
[3] = biological target: T3, human CHRDL2 (A25–T429) (human); experiment: SPR; equilibrium binding, Biacore T200, 25 °C; BMP2, BMP7, GDF5 or CHRDL2 amine-coupled to a CM5 chip, TWSG1 proteins as analytes; 0.15 M NaCl, 20 mM HEPES pH 7.5, 2 mM CaCl2, 0.005% Tween 20; 1:1 binding isotherm; both purified

Binder	binding [1]	binding [2]	binding (Scw:Flag (Drosophila))	binding [3]
B1	binds	binds weakly		
B2			binds	
B3				no binding
B4	no binding	no binding		
